The target of experiment [1] is T1, human TNFR2 on stably transfected cells (MEF-TNFR2, HeLa-TNF-R2) (human, UniProt P20333 23-461).
T1 construct: whole, on cells; Same receptor on two transfected cell lines; the cell line is named under assay; also called human TNF receptor 2
T1 sequence (looked up): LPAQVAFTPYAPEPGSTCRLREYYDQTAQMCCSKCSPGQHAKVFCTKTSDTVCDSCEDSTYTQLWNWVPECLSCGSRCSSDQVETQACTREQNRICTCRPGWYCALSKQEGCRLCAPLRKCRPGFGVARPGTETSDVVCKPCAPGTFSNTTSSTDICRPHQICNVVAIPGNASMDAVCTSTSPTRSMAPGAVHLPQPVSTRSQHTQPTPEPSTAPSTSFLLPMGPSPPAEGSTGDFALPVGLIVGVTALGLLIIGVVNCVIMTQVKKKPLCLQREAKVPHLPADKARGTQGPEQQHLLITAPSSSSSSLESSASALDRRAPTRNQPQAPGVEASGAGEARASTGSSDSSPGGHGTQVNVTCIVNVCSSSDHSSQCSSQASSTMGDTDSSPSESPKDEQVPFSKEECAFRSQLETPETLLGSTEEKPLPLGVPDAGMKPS
Nature of the experiment: flow cytometry on HeLa-TNF-R2 cells after 8 days at 37 °C in 50% human blood plasma, experiment 4. The protocol: (§1) FIG. 10: Stability of scTNFR2-Fc(Δab) complexes in human blood plasma. The integrity of the scTNFR2-Fc(Δab) complexes after incubation for 0 days (control), 3 days or 8 days in 50% human blood plasma at 37° C. was tested by their ability to bind HeLa-TNF-R2 cells in flow cytometry. The percentage of intact protein (mean±S. D., n=4) was calculated from reciprocals of the EC₅₀ values which were normalized to the non-incubated control (100%). Statistical analysis was performed by two-way ANOVA and Dunnett's post-test. Results were summarized as ****p <0.0001; ***p <0.001; **p <0.01; *p <0.05; n. s.=not significant.
(§2) The stability of the scTNFR2-Fc(Δab) proteins in human blood plasma after incubation periods of 3 and 8 days at 37° C. was assayed by binding of protein samples to HeLa cells stably overexpressing TNF-R2 (HeLa-TNF-R2, Richter et al., 2012, Mol. Cell Biol. 32, 2515-2529). […] After incubation, samples were stored at −80° C. and thawed prior testing the protein integrity by binding to HeLa-TNF-R2 in flow cytometry. […] Bound protein was detected with goat anti-human IgG Fcγ fragment specific-R-phycoerythrin antibody (Jackson ImmunoResearch, 1:500) for 1 h at 4° C. After two final washing steps with FACS buffer, cells were analyzed with a MACSQuant® VYB flow cytometer equipped with a 586/15 nm filter for detection of phycoerythrin.

The target in experiment [2] is T1, human TNFR2 on stably transfected cells …. The experiment can be described thus: flow cytometry on HeLa-TNF-R2 cells after 0 days at 37 °C in 50% human blood plasma (control), experiment 3. The protocol:
as §1, §2
(In general: A flow cytometer gives signals particle by particle.)

Experiment [3] has as its target T2, TNFR2 on Kym-1 cells (UniProt P20333 23-461, limits assumed).
T2 sequence (looked up): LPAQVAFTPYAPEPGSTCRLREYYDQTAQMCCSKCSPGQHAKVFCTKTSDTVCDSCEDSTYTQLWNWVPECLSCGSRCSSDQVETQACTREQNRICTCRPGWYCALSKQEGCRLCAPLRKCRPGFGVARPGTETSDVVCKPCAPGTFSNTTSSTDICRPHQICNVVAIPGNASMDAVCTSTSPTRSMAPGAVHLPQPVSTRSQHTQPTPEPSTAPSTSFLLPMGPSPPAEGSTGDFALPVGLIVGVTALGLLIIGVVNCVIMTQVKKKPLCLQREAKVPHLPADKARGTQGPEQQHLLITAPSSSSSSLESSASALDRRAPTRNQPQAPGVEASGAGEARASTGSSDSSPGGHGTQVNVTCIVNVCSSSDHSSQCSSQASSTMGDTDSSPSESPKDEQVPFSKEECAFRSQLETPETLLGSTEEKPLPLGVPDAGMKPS
Nature of the experiment: cell-based or functional assay.

In experiment [4] the target is T1, human TNFR2 on stably transfected cells …. Nature of the experiment: flow cytometry on MEF-TNFR2 cells. The procedure:
The binding of the scTNFR2-Fc(Δab) complexes to mouse embryonic fibroblasts (MEFs) stably transfected with human TNFR1 (MEF-TNFR1) or human TNFR2 (MEF-TNFR2) (Krippner-Heidenreich et al., 2002, J. Biol. Chem. 277, 44155-44163) was analyzed by flow cytometry. To this, cells were trypsinized and washed once in ice-cold FACS buffer (PBS, 2% FBS, 0.05% sodium azide). 200,000 cells per sample were incubated with serially diluted scTNFR2-Fc(Δab) complexes in 100 μl FACS buffer for 2 h at 4° C. Next, unbound proteins were removed by two washing steps with FACS buffer, followed by detection with Anti-Human IgG (γ-chain specific)-R-Phycoerythrin antibody (Sigma-Aldrich, 1:500) for 1 h at 4° C. After two final washing steps with FACS buffer, cells were analyzed with a MACSQuant® Analyzer 10 equipped with a 585/40 nm filter.

Experiment [5] shares this target. The experiment can be described thus: flow cytometry on HeLa-TNF-R2 cells after 8 days at 37 °C in 50% human blood plasma, experiment 2. The protocol:
as §1, §2

Experiment [6] has the same target. Nature of the experiment: flow cytometry on HeLa-TNF-R2 cells after 0 days at 37 °C in 50% human blood plasma (control), experiment 4. The protocol: as §1, §2

The values below come from US20220267410A1 (UNIVERSITAT STUTTGART, published 2022).

B1: scTNFR2(118)-Fc(Δab) (745) (Fc fusion)
chain: [about 150 residues not given here]GGGGSSSRTPSDKPVAHVVANPQAEGQLQWLNRRANALLANGVELRDNQLVVPSEGLYLIYSQVLFKGQGCPSTHVLLTHTISRIAVSYQTKVNLLSAIKSPCQRETPEGAEAKPWYEPIYLGGVFQLEKGDRLSAEINRPDYLNFRESGQVYFGIIALGGGGSSSRTPSDKPVAHVVANPQAEGQLQWLNRRANALLANGVELRDNQLVVPSEGLYLIYSQVLFKGQGCPSTHVLLTHTISRIAVSYQTKVNLLSAIKSPCQRETPEGAEAKPWYEPIYLGGVFQLEKGDRLSAEINRPDYLNFRESGQVYFGIIALGGSGGGGSGGDKTHTCPPCPAPPVAGPSVFLFPPKPKDTLMISRTPEVTCVVVDVSHEDPEVKFNWYVDGVEVHNAKTKPREEQYNSTYRVVSVLTVLHQDWLNGKEYKCKVSNKGLPSSIEKTISKAKGQPREPQVYTLPPSRDELTKNQVSLTCLVKGFYPSDIAVEWESNGQPENNYKTTPPVLDSDGSFFLYSKLTVDKSRWQQGNVFSCSVMHEALHNHYTQKSLSLSPGK
notes: Hexavalent dimer through the Fc(Δab) region; no His tag
On to B1, for which the EC50 in experiment [1] was determined as 0.0938 nM; in experiment [2], 0.0558 nM; in experiment [4], 0.062 nM; in experiment [5], 0.0666 nM; in experiment [6] it was 0.0855 nM. Further, in experiment [3], the “EC50 on Kym-1 (cell death, crystal violet), without 80M2” value was found to be 0.0149 nM.

B2: scTNFR2(139)-Fc(Δab) (744) (Fc fusion)
chain: [about 150 residues not given here]GGGGSDKPVAHVVANPQAEGQLQWLNRRANALLANGVELRDNQLVVPSEGLYLIYSQVLFKGQGCPSTHVLLTHTISRIAVSYQTKVNLLSAIKSPCQRETPEGAEAKPWYEPIYLGGVFQLEKGDRLSAEINRPDYLNFRESGQVYFGIIALGGGGSDKPVAHVVANPQAEGQLQWLNRRANALLANGVELRDNQLVVPSEGLYLIYSQVLFKGQGCPSTHVLLTHTISRIAVSYQTKVNLLSAIKSPCQRETPEGAEAKPWYEPIYLGGVFQLEKGDRLSAEINRPDYLNFRESGQVYFGIIALGGSGGGGSGGDKTHTCPPCPAPPVAGPSVFLFPPKPKDTLMISRTPEVTCVVVDVSHEDPEVKFNWYVDGVEVHNAKTKPREEQYNSTYRVVSVLTVLHQDWLNGKEYKCKVSNKGLPSSIEKTISKAKGQPREPQVYTLPPSRDELTKNQVSLTCLVKGFYPSDIAVEWESNGQPENNYKTTPPVLDSDGSFFLYSKLTVDKSRWQQGNVFSCSVMHEALHNHYTQKSLSLSPGK
notes: as for B1
As to B2, the EC50 in experiment [1] came out at 0.0869 nM; in experiment [2], 0.0629 nM; in experiment [4], 0.062 nM; in experiment [5], 0.0567 nM; in experiment [6], 0.0765 nM. For the same molecule, the “EC50 on Kym-1 (cell death, crystal violet), without 80M2” value in experiment [3] was 0.0595 nM.

In general, EC50 refers to the concentration giving half of the maximal effect. Read a high EC50 as a need for much substance.
